Experimental data: PubChem BioAssay AID1159614 (National Center for Advancing Translational Sciences (NCATS), 2016)
The campaign covered roughly 45,000 compounds. About 65 (0.1%) were called active. Calls come from the whole dose curve; as a rule, active = well fitted activation curve with a large enough effect; inconclusive = small, poorly fitted or top-dose-only effect; inactive = no such curve, though single readings can be large or run the other way. This is one part of the list.

The compounds below were run against Galactocerebrosidase (Homo sapiens) (UniProt P54803) (assay: A Novel Cell-Based Assay to Identify Small Molecules for B -Galactocerebrosidase). Conditions: 145M-Twi-hGALC-G270D cells (Twitcher mouse brain line with human GALC G270D), HMU-beta-Gal fluorescence, 48 h; series mostly up to 57.5 µM; activation: at the top concentration.
UniProt P54803, sequence (P54803 whole entry, looked up): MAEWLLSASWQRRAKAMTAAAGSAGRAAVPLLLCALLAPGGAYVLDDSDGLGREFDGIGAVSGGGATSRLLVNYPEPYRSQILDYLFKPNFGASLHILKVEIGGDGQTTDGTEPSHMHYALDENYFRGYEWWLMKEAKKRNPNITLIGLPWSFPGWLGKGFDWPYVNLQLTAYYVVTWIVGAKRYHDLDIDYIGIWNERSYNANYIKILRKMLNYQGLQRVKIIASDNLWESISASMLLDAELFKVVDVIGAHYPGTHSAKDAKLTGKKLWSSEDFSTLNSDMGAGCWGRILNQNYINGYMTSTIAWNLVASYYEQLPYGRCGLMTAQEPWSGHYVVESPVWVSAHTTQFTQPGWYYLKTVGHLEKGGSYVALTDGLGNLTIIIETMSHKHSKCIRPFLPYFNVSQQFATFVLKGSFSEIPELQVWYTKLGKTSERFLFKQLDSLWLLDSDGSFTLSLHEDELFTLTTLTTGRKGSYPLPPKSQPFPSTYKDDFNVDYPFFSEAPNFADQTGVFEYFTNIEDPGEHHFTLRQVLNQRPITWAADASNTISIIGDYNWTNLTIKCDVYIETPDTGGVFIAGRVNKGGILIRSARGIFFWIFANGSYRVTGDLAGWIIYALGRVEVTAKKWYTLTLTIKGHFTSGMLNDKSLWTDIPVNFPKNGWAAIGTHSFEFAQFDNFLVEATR
How it was run: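 Brain-derived Twitcher mouse 145M-Twi cells stably expressing human GALC-G270D or wild-type GALC, treated live, then residual GALC activity read by fluorescence of HMU-b-Gal substrate (0.1 mM final) in citrate-phosphate buffer pH 5.2 with sodium taurocholate. Signal increase indicates enhancement.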
Note: 0% is about no effect; nearly all actives have a fitted effect of over 65% in size.

activation, inactive:
O=C(NCc1ccccc1)C(=O)NCC(c1ccco1)S(=O)(=O)c1cccs1 (stereo not drawn) -20.2%, Cc1ccc(Cl)cc1NC(=O)C1CCCN(c2cnccn2)C1 (stereo not drawn) -6.31%, Cc1cccc(NC(=O)C2CCN(c3nnc(C)c4c(C)n(-c5ccccc5)nc34)CC2)c1C -21.9%, CN(C)c1ccc(C(CNS(=O)(=O)c2ccc(Cl)cc2)N2CCOCC2)cc1 (stereo not drawn) -8.03%, Cc1oc(-c2ccc(Cl)cc2)nc1CN1CCCC(C(=O)NCc2ccccc2)C1 (stereo not drawn) -3.02%, Cc1ccc(-n2c(COCC(=O)O)nc3cccnc32)cc1 1.24%, Cc1ccc(Cl)cc1N1CCN(C(=O)c2cc3c(=O)oc4ccccc4c3s2)CC1 -3.08%, CCN1CCN(C(c2ccccc2Cl)c2c(O)cc(C)n(CCOC)c2=O)CC1 (stereo not drawn) -25.7%, Cc1ccc(/C=C(\C#N)C(=O)Nc2cccc(Br)c2)o1 -8.15%, CC1CCCN(CCCNC(=O)Cn2ncc3c([nH]c4ccccc43)c2=O)C1 (stereo not drawn) -9.48%, Nc1nn(-c2ccccc2)nc1C(=O)OCc1ccccc1 -6.71%, CCCCn1c(=O)nc2n(-c3ccc(Br)cc3)c3ccccc3cc-2c1=O 23.8%, CC1(C)CCC(C)(C)c2cc(NC(=O)c3ccc(C(=O)O)cc3)ccc21 -6.4%, CCc1ccc(C2=CC(c3c(F)cccc3Cl)n3c(nc4ccccc43)N2)cc1 (stereo not drawn) -5.5%, Cc1ccc(-n2c(SCC(=O)N3CCCc4ccccc43)nc3c([nH]c4ccccc43)c2=O)cc1 6.08%, CCc1ccccc1-n1nnc(-c2nsc(NC(=O)c3ccc(C)c(C)c3)n2)c1C -19%, CC(C)(C)C(=O)Nc1ccccc1C(=O)OCc1cc(=O)n2ccsc2n1 -5.3%, CCc1ccc(OCCn2c(C3CC(=O)N(Cc4ccc(F)cc4)C3)nc3ccccc32)cc1 (stereo not drawn) -26.6%, COCCCNC(=O)CSC1=Nc2ccccc2C2=NC(CCC(=O)NCc3ccc(OC)cc3)C(=O)N12 (stereo not drawn) -19.2%, CCOC(=O)c1c(C)[nH]c(C)c1S(=O)(=O)N(C)CC(=O)Nc1ccc(C)cc1Br -16%, COc1cccc(C(=O)Nc2nc(-c3ccc(Br)cc3)ns2)c1 0.393%, CCOC(=O)Cc1ccc(NC(=O)N(Cc2ccc(CC)cc2)Cc2cn[nH]c2-c2ccc(OC)cc2)cc1 -9.27%, N[C@@H](Cc1cc(I)c(Oc2cc(I)c(O)c(I)c2)c(I)c1)C(=O)O -20.3%, Cc1ccc(S(=O)(=O)N2CCN(Cc3nc4ccc(C)cc4o3)CC2)c(C)c1 -15.6%, Cc1ccccc1OCCn1c(CCNC(=O)C2CCCCC2)nc2ccccc21 -18%, Cc1nc2ccc(S(=O)(=O)NCC(=O)Nc3ccc(F)cc3F)cc2s1 -5.32%, O=C(Nc1ccccc1Cl)N1CCSc2ccccc21 -14.4%, CCOC(=O)Cn1c(=O)n(C2CCCCC2)c2nc(-c3c(F)cccc3Cl)nc(C(N)=O)c21 -27.1%, CC(C)CCn1c(/C=C/c2ccccc2)nc2ccccc21 -23%, Cc1ccc(-c2cn3ccc(C)cc3n2)cc1 -7.6%, Cc1cc(C)cc(NC(=O)CSc2nc3nccnc3c(=O)n2CCc2c[nH]c3ccccc23)c1 2.64%, Cc1ccc(NC(=O)c2cnc3sc(N4CCOCC4)nn3c2=O)cc1N(C)C -8.73%, COc1ccccc1C(=O)Nc1sc(Nc2ccccc2)nc1C(N)=O -14.8%, O=C(c1ccc2c(c1)N(Cc1ccccc1)C(=O)c1ccccc1S2(=O)=O)N1CCN(Cc2ccccc2)CC1 -12.2%, COc1ccc(Nc2nc(C)nc(N)c2S(=O)(=O)c2ccccc2)cc1 -5.06%, COC(=O)c1scc(-c2ccc(C)cc2)c1S(=O)(=O)Nc1cc(C)ccc1OC -6.64%, Cc1cccc(NC(=O)Cn2c(=O)n(CCCCCC(=O)NCc3ccc4c(c3)OCO4)c(=O)c3sccc32)c1 -21.3%, COc1cccc(N2CC(NC(=O)c3cc(Cl)ccc3OC)CC2=O)c1 (stereo not drawn) -24.5%, Cc1ccc(C(=O)N/C(=C\c2ccc(Cl)cc2)C(=O)NC2CCCCC2)cc1 1.88%, COc1ccc(OC)c(NS(=O)(=O)c2ccc(N3CCCCS3(=O)=O)cc2)c1 -16.2%, CCOc1ccc(N2CC(NC(=O)C3CCCC3)CC2=O)cc1 (stereo not drawn) -7.44%, CCCNC(=O)C1CCC(Cn2c(=O)c3sccc3n(CC(=O)NCc3cccc(OC)c3OC)c2=O)CC1 (stereo not drawn) -4.02%, Cc1cc(C)c2c(NC(=O)c3ccccc3)c(C(=O)Nc3ccc(F)cc3)sc2n1 -9.36%, Cc1ccc(C)c(N2CCN(CCCNC(=O)c3ccc4nc(CCc5ccccc5)oc4c3)CC2)c1 -6.34%, COc1ccc(-c2onc(C)c2C)cc1S(=O)(=O)N(C)Cc1ccccc1 -41.7%, Cc1cc(-n2ccnc(NCCc3ccc(S(N)(=O)=O)cc3)c2=O)ccc1Br -12.9%, COc1ccc(NC(=O)c2ccco2)cc1NC(=O)c1cc(OC)c(OC)c(OC)c1 -15.3%, CC(=O)c1cccc(NC(=O)CN(c2cc(C)cc(C)c2)S(=O)(=O)c2c(C)noc2C)c1 -5.52%, COc1ccc(C(=O)c2sc(Nc3ccccc3)nc2N)cc1 -4.49%, N#Cc1c(C(F)(F)F)cc(-c2cccs2)nc1SCC(=O)Nc1cccc(Cl)c1 -18.4%, Cc1ccc(Cl)cc1NC(=O)CCCn1c(=O)c2cccn2c2cccnc21 -13.8%, COc1ccccc1NC(=O)C1=C(C)Nc2c(C(=O)Nc3cccc(C)c3)cnn2C1c1ccccc1Cl (stereo not drawn) -3.24%, COc1ccc(Cl)cc1NC(=O)c1c(NCc2cccnc2)sc2c1CCC(C)C2 (stereo not drawn) -25.4%, CC1CCCCN1CCCNC(=O)CN1C(=O)c2cccnc2Oc2ccccc21 (stereo not drawn) -12.1%, Cc1ccccc1C(=O)N(Cc1sccc1C)C1CCS(=O)(=O)C1 (stereo not drawn) -5.35%, COc1cc(NC(=O)CCn2nc(C)c(S(=O)(=O)N3CCCCC3)c2C)cc(OC)c1OC -12%, COc1ccc(CCNC(=O)c2ccc(Cn3c(=O)c4ccccc4n(CC(=O)C(C)(C)C)c3=O)cc2)cc1OC -17%, COCCCNC(=O)c1ccc(Cn2c(=O)c3ccccc3n(Cc3c(C)cc(C)cc3C)c2=O)cc1 15.8%, COc1ccc(-c2nc3n(n2)C(c2ccc(OC)c(OC)c2)C(C(=O)Nc2cccnc2)=C(C)N3)cc1 (stereo not drawn) -2.32%, CCCCN(CC)C(=O)C1CCCN(c2ncnc3onc(C)c23)C1 (stereo not drawn) -16.4%, CCN1CCN(C(c2ccc(SC)cc2)c2c(O)cc(C)n(CCOC)c2=O)CC1 (stereo not drawn) -30.9%, COc1cc(C(=O)NCC(c2ccc(Cl)cc2)N2CCOCC2)cc(OC)c1OC (stereo not drawn) -5.66%, CCOC(=O)c1c(C)[nH]c(C)c1S(=O)(=O)NCC(=O)NCc1cccc(C)c1 -12.1%, O=c1cc(-c2ccc(F)cc2)nc(SCc2nc(-c3ccc(Cl)cc3)no2)[nH]1 -4.25%, CCOC(=O)c1ccc(CN(Cc2ccc(Br)cc2)S(=O)(=O)c2cccc(Cl)c2C)cc1 -14.3%, CC(=O)c1ccc(NC(=O)CSc2nc(=O)n(Cc3ccncc3)c3c2CCC3)cc1 -7.61%, Cc1ccc(N2CCN(C(=O)c3cn(C)c4ccc(S(=O)(=O)N(C)C)cc4c3=O)CC2C)cc1 (stereo not drawn) 4.56%, O=C(Cn1c(=O)nc(-c2ccccc2)c2ccccc21)NCc1ccccc1Cl -3.68%, CCS(=O)(=O)c1ncc(N(Cc2ccco2)Cc2ccccc2F)c(C(=O)Nc2cccc(Cl)c2)n1 -3.27%, CCOC(=O)CC(NC(=O)Cn1nnc(-c2ccccc2F)n1)c1ccccc1Cl (stereo not drawn) -15.8%, CCc1ccc(C2C(C(=O)Nc3ccccc3C)=C(C)Nc3nc(SCc4cccc(OC)c4)nn32)cc1 (stereo not drawn) -8.85%, O=C(CN1N=C(c2ccc(Cl)cc2)CCC1=O)NCCc1ccccc1 -13.9%, CC(C)(Oc1ccc(Br)cc1)C(=O)Nc1cc(-c2nc3ccccc3[nH]2)ccc1Cl -8.77%, CCOc1ccc(NC(=O)c2oc3ccccc3c2NC(=O)c2ccc(OC)cc2OC)cc1 -6.4%, COc1ccccc1CNC(=O)CN1N=C(c2ccccc2)CCC1=O -1.22%, Cc1ccc(NC(=O)Cn2nc(Cc3ccncc3)c3ccccc3c2=O)c(Cl)c1 4.11%, CCc1c(C)nc2nncn2c1NCc1ccc(Cl)cc1 -2.67%, CNCc1ccccc1 -21.8%, Fc1ccccc1N1CCN(c2nccn3nc(-c4ccc(Br)cc4)cc23)CC1 -9.49%, COc1ccc(CNC(=O)CS(=O)Cc2nc(-c3cccc(C)c3)oc2C)cc1 (stereo not drawn) -8.75%, COc1cc(CNCCSc2nnnn2C)cc(Cl)c1OCc1ccccc1 -4.37%, Cc1nc(SCCOc2ccccc2F)[nH]c(=O)c1Cc1ccccc1 -4.17%, Cc1ccccc1NC(=O)c1oc2c(c1C)-c1nn(Cc3cccc(Cl)c3)cc1CC2 -16.9%, Cc1ccc(S(=O)(=O)NCC2CCC(C(=O)NCCCOC(C)C)CC2)cc1 (stereo not drawn) -22.2%, CCCCNc1nc2ccccc2c2nc(-c3ccccc3)nn12 1.36%, CCCCN(CC)CCNC(=O)c1cc2c(=O)n(CC)c3ccccc3c2s1 5.28%, Oc1ccc(NCc2ccccc2OCc2ccc(Cl)cc2)cc1 -16.6%, CCOC(=O)c1c(NC(=O)C2c3ccccc3Oc3ccccc32)sc(C)c1CC -10.7%, COc1cc(Nc2nc3c(S(=O)(=O)c4ccc(C)c(C)c4)nnn3c3ccsc23)cc(OC)c1 -12.1%, O=C(NCc1ccc(F)cc1)C1(c2cccs2)CCOCC1 -1.9%, Cc1ccc(OCC(=O)Nc2nnc(S(=O)(=O)N3CCCCCC3)s2)cc1 -14.7%, COC(=O)c1ccccc1NC(=O)N1CCC(N2CCN(Cc3ccc(F)cc3)C(=O)C2=O)CC1 -9.98%, CC(C)(C)C1CCc2nc(NC(=O)Cc3ccccc3)sc2C1 (stereo not drawn) -7.92%, CCn1c(=O)cc(OCC(=O)N(C)c2cc(Cl)ccc2C)c2ccccc21 -14.1%, COc1cc(O)c(C(=O)c2ccccc2)cc1S(=O)(=O)O -15.4%, CCCCC(CC)COC(=O)c1ccc(N(C)C)cc1 (stereo not drawn) -16.3%, O=C1CN(C(=O)COc2ccc(Cl)cc2Cl)C(c2ccccc2)c2cc(F)ccc2N1 (stereo not drawn) -6.13%, CN(C)CCNC(=O)c1ccc(-c2nn(C)c(=O)c3ccccc23)cc1 4.06%
